The other results are listed elsewhere or left out. At the low end of the ranking the order means little.

For the test, the target named is T1, GST-Rok (full length) (UniProt O34857).
T1 sequence: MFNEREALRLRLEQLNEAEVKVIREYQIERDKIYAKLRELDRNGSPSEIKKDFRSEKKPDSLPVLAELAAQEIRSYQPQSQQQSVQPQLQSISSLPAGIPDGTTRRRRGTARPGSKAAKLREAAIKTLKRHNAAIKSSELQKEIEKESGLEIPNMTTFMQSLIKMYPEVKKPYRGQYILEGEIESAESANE
As to the kind of experiment: protein binding microarray.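 Also: rank score from −0.5 (least bound) to 0.5 (best bound).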 The following applies: Rok is a gene silencer of Bacillus subtilis; high values mean tight binding; most listed sequences are background and not binding sites; double strand, one strand shown.
In turn, ACTTCCCG had a binding signal of -0.201 E-score.

Regarding CCGATGGC, the binding signal is -0.331 E-score.

Sequence ATTCCGAC yielded a binding signal of 0.0845 E-score.

AACCCCTT came in with a binding signal of -0.293 E-score.

With ATAGTAAA, the binding signal was 0.397 E-score.

As to GCGGATCA, the binding signal was -0.193 E-score.

For the sequence GGGTAAGA, the binding signal was -0.0994 E-score.

On to AGAGCAAT, for which the binding signal turned out to be 0.058 E-score.

Sequence AATCTGAG came in with a binding signal of 0.0668 E-score.

Turning to CGTTACAA, the binding signal was 0.151 E-score.

Turning to ACGTAGGC, the binding signal was -0.297 E-score.

Sequence GAGGGGTA showed a binding signal of -0.271 E-score.

In the case of ACCAGTCT, the binding signal came to 0.0205 E-score.

Consider CGTTGTAC, for which the binding signal was determined as 0.039 E-score.

AATATAAT showed a binding signal of 0.228 E-score.

In turn, AGAGTAGG came in with a binding signal of -0.0763 E-score.

GAAAATTC: the binding signal came out at 0.00925 E-score.

Sequence CTTTCGAA displayed a binding signal of 0.0639 E-score.

Take GTCTACCA: the binding signal was 0.0944 E-score.

Turning to AAACTGCT, the binding signal is -0.0189 E-score.

CGTACGAG: the binding signal was -0.195 E-score.

In turn, ATATGCTG came in with a binding signal of 0.143 E-score.

For the sequence ATGCTGTC, the binding signal worked out at 0.0388 E-score.

Take CACATAAA: the binding signal was -0.00284 E-score.

Take ATCCGTTG: the binding signal was 0.0609 E-score.

Sequence AGTAGAGG yielded a binding signal of -0.169 E-score.

The sequence GATGCGAC came in with a binding signal of -0.205 E-score.

Turning to AGGGAGTC, the binding signal was -0.375 E-score.

CCCTCCTA gave a binding signal of -0.349 E-score.

GCTGGGTA: the binding signal was determined as 0.0601 E-score.

GCGAGTCC yielded a binding signal of -0.112 E-score.

Turning to CAAGTATC, the binding signal is 0.0694 E-score.

As to AGACTGTC, the binding signal turned out to be 0.0207 E-score.

GAGCGTCC showed a binding signal of -0.203 E-score.

The sequence AAAGGCTC had a binding signal of -0.183 E-score.

The sequence AAATTCTC displayed a binding signal of 0.0375 E-score.

AATTTAGC came in with a binding signal of 0.252 E-score.

Regarding AAGTCGGG, the binding signal is -0.266 E-score.

As to CGCAAGCC, the binding signal was -0.112 E-score.

In turn, CCTTGATC registered a binding signal of -0.171 E-score.

GTTGTCTA had a binding signal of -0.0877 E-score.

For the sequence AAAAGTAG, the binding signal is 0.308 E-score.

In the case of GGGATACA, the binding signal stood at 0.0313 E-score.

AAGACCAA registered a binding signal of -0.0454 E-score.

Take CTTGTGAA: the binding signal turned out to be 0.115 E-score.

With AGACATCG, the binding signal was -0.122 E-score.

Turning to GAGGAACC, the binding signal is -0.113 E-score.

As to ACTTAAGA, the binding signal was -0.117 E-score.

As to AGGTCCAG, the binding signal is -0.187 E-score.

AGCCCGAC: the binding signal is -0.3 E-score.

Take CAAATTTA: the binding signal was determined as 0.168 E-score.

Sequence CGTGCCTA yielded a binding signal of -0.0621 E-score.

Turning to TACGGGGA, the binding signal is -0.089 E-score.

CCTCTCCA came in with a binding signal of -0.235 E-score.

ATGGGTTG: the binding signal worked out at 0.0584 E-score.

Sequence CTGATCCC gave a binding signal of -0.351 E-score.

The sequence CTCTTTTA came in with a binding signal of 0.178 E-score.

CGTGCTCA showed a binding signal of -0.158 E-score.

In the case of AGACCCAA, the binding signal is 0.000788 E-score.

In turn, ACAAACCG registered a binding signal of 0.0116 E-score.

As for TACCTGAA, the binding signal came to 0.151 E-score.

GAAGACGC displayed a binding signal of -0.327 E-score.

ACACAAGA yielded a binding signal of 0.0236 E-score.

CCCCGCCG yielded a binding signal of -0.378 E-score.

Sequence GTCCAAAC came in with a binding signal of 0.0166 E-score.

CTTGAAAA registered a binding signal of -0.0933 E-score.

Consider AGTAGAAA, for which the binding signal came out at 0.42 E-score.

GTAGAACA displayed a binding signal of 0.249 E-score.

The sequence ACCTGAGA returned a binding signal of -0.148 E-score.

In turn, AGTACTGG returned a binding signal of 0.156 E-score.

With ATACCCAC, the binding signal was 0.142 E-score.

In turn, TAAGATCA registered a binding signal of 0.231 E-score.

Take CTGGCTAA: the binding signal was -0.228 E-score.

CTTTGATC yielded a binding signal of 0.0707 E-score.

Turning to CGGATATA, the binding signal is 0.151 E-score.

In the case of AACCGTTC, the binding signal was -0.0678 E-score.

For AACGTTAG, the binding signal amounted to 0.344 E-score.

On to AGGAATCA, for which the binding signal turned out to be 0.0547 E-score.

In the case of GGTTTCTA, the binding signal stood at 0.334 E-score.

CATCATTA returned a binding signal of 0.0295 E-score.

In turn, AACCTCGT registered a binding signal of -0.155 E-score.

For ATCCACTC, the binding signal is -0.0458 E-score.

Consider CGCTCCAG, for which the binding signal was -0.146 E-score.

CGAGAAAC displayed a binding signal of 0.0424 E-score.

As for CTCGTGTC, the binding signal was -0.282 E-score.

With ATATCGGG, the binding signal is 0.0322 E-score.

CGGGACAA had a binding signal of -0.213 E-score.

In the case of ACTGACCA, the binding signal is -0.0122 E-score.

For AGAGCAAA, the binding signal was -0.0912 E-score.

CATTGCAG displayed a binding signal of -0.201 E-score.

GGTACATA gave a binding signal of 0.196 E-score.

Regarding ACCGCAGA, the binding signal is -0.0176 E-score.

As for AATGCTCT, the binding signal is -0.0117 E-score.

TGGTTAAA gave a binding signal of 0.0539 E-score.

Regarding CATAAATC, the binding signal was found to be 0.118 E-score.

Regarding AATGGAGG, the binding signal was -0.114 E-score.

As for CAAGTACG, the binding signal was 0.058 E-score.

As for AGATCGAT, the binding signal came to 0.183 E-score.

For the sequence GCGTTCCA, the binding signal was 0.148 E-score.

The sequence TCCAGTAA registered a binding signal of 0.0498 E-score.

Take AGTTTGGC: the binding signal came out at 0.0399 E-score.

Consider CGGAACTA, for which the binding signal turned out to be 0.279 E-score.

In turn, ATTTTTTA displayed a binding signal of 0.0689 E-score.

As to AACTCTCT, the binding signal was -0.0592 E-score.

Take AAACCAAT: the binding signal was found to be 0.185 E-score.

In the case of AGGGCTCC, the binding signal is -0.299 E-score.

ACTTTCTA showed a binding signal of 0.386 E-score.

Turning to AGGTAAGC, the binding signal is -0.0863 E-score.

In the case of ATCTCCAG, the binding signal is 0.113 E-score.

(Values after paper PMC6212790.)
